Several values for one entry are separate records, joined by “and”; a condition that tells them apart may be missing. Identical values can stand only once. Among all 270,000 compounds or so, about 5,800 (2.1%) were called active. The shares of active, inactive and inconclusive entries below differ from those in the screen. The call rests on the fitted dose curve; in most records, active means well fitted inhibition curve with a large enough effect; inconclusive means small, poorly fitted or top-dose-only effect; inactive means flat fitted curve, though single readings scatter. Potencies of inconclusive entries are doubtful fits and often do not repeat.
biological target: Microtubule-associated protein tau (Homo sapiens) (UniProt P10636); test: qHTS for Inhibitors of Tau Fibril Formation, Thioflavin T Binding; conditions: recombinant tau K18 P301L (four-repeat tau fragment), heparin-induced fibrillization, ThT fluorescence; series mostly up to 57.4 µM; further: nearly all actives have a fitted effect of over 55% in size
Sequence of UniProt P10636 (P10636 whole entry, looked up, the tested form may be a part): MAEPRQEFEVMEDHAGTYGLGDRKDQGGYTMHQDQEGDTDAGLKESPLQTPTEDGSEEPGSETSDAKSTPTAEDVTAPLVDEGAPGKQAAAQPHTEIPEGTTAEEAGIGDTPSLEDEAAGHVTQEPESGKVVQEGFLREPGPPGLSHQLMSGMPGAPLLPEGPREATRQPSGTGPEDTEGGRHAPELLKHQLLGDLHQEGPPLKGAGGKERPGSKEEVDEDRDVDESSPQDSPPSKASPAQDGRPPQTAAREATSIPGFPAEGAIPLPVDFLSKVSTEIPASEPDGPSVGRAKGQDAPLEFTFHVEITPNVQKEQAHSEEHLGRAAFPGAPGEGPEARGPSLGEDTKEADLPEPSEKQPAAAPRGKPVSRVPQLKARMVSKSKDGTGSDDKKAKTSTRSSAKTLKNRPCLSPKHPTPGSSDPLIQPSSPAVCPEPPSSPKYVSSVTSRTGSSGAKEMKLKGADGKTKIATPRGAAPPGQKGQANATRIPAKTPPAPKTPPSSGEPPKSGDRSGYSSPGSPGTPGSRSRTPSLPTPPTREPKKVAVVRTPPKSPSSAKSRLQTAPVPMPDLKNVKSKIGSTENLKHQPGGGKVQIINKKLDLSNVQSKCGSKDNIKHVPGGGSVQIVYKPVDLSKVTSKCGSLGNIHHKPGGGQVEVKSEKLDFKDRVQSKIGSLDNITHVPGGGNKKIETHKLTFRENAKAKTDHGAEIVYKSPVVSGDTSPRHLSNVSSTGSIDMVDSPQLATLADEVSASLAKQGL
Procedure, shortened: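 Heparin-induced (20 uM) aggregation of recombinant human K18 P301L tau, 15 uM unlabeled with 0.24 uM labeled, pH 7 acetate buffer, 6 hr at 37 C with compound. Fibrils quantified by 30 uM ThT fluorescence after 1 hr ambient incubation.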
Potency means the concentration at half of the fitted maximal effect; tags describe the fitted curve by direction and shape.

SMILES	Potency
CNC(=O)c1sc2ncccc2c1-n1cccc1	inactive
CC(=Nc1ccc(C)c(C)c1)C1=C(O)CSC1=O	inconclusive: 17.8 µM [inhibitor, partial curve]
Cc1cc(NC(=O)Cn2nc(C)n3cccc3c2=O)ccc1Br	inconclusive: 8.91 µM [activator, partial curve]
CCOC(=O)c1c(C)[nH]c(C(=O)OC/C(O)=C(\C#N)c2nc3ccccc3[nH]2)c1C	inconclusive: 17.8 µM [inhibitor, partial curve]
Cn1c(=O)n(-c2cccc(Cl)c2)c(=O)c2sc3ccccc3c21	inconclusive: 25.1 µM [activator, single point]
Cn1c(Sc2ccc(C(=O)O)cc2[N+](=O)[O-])nnc1-c1ccccc1	inactive
COc1ccc(-c2noc(CSc3nc(C)cc(=O)[nH]3)n2)cc1OC	inconclusive: 22.4 µM [inhibitor, partial curve]
Cc1ccc(CSc2nnc(-n3c(=O)c(C#N)cc4c(=O)n5cc(C)ccc5nc43)s2)cc1	inactive
CC(C)c1ccc(OCc2nc(-c3ccccn3)no2)c(Br)c1	inconclusive: 10 µM [inhibitor, partial curve]
CCCCN=C1NN=C(c2ccc3c(c2)OCCO3)CS1	inconclusive: 25.1 µM [inhibitor, single point]
Cc1cc(C)nc(/N=C(\N)N2CCc3ccccc32)n1	inconclusive: 7.08 µM [inhibitor, partial curve]
COc1ccc(-c2cc(C)nc3c(-c4ccccc4)cnn23)cc1	inconclusive: 8.91 µM [inhibitor, partial curve]
CC(C)NC(=O)C(c1ccccc1)N1Cc2ccccc2C1=O (stereo unspecified)	inactive
O=[N+]([O-])c1ccc2c(c1)S(=O)c1ccccc1-2 (stereo unspecified)	inconclusive: 15.8 µM [inhibitor, partial curve]
Nc1nonc1C(=O)NCCNc1ccc([N+](=O)[O-])cc1	inconclusive: 31.6 µM [inhibitor, partial curve, poor fit]
COc1ccc(N2CCn3c2nc2c3c(=O)n(CCCc3ccccc3)c(=O)n2C)c(OC)c1	inconclusive: 12.6 µM [inhibitor, partial curve]
CCN(CC)c1ccc(C=NCCc2ccc(S(N)(=O)=O)cc2)cc1	inactive
Cc1ccc(-c2csc(NC(=O)C[n+]3cc(-c4ccc(C)cc4)n4c3CCC4)n2)cc1	inconclusive: 14.1 µM [inhibitor, partial curve]
CN(C)c1ccc(NC(=O)CN2CCN(CC(=O)Nc3ccc(F)cc3)CC2)cc1	inactive
O=C(O)Cc1ccc(O)c(O)c1	inconclusive: 44.7 µM [inhibitor, single point] and inconclusive: 14.1 µM [inhibitor, partial curve] and inconclusive: 15.8 µM [inhibitor, partial curve]
O=C(N/N=C/c1cc2c(cc1Br)OCO2)C1COc2ccccc2O1 (stereo unspecified)	inconclusive: 1.58 µM [inhibitor, full curve]

SMILES	Potency
N=c1cc(C2(O)CCCCC2)n2c(nc3ccccc32)s1	inactive
Cn1c2ccccc2c2cc(/C=C(\NC(=O)c3ccccc3)C(=O)NCC(=O)O)ccc21	inconclusive: 22.4 µM [inhibitor, partial curve]
N#C/C(=N/Nc1ccc([N+](=O)[O-])cc1)C(=N)N1CCCCC1	active: 10 µM
O=C(C1=C[C@@H](C2CCCCC2)C[C@@H](OCc2ccc(CO)cc2)O1)N1CCN(Cc2ccccc2)CC1	inconclusive: 10 µM [inhibitor, single point]
CCn1c(SCc2ccc(F)cc2Cl)nc(=O)c2c(C(=O)OC)cc(C3CC3)nc21	inconclusive: 20 µM [inhibitor, partial curve]
CCn1c2ccccc2c2cc(NC(=O)CNCC3CCCO3)ccc21 (stereo unspecified)	inconclusive: 22.4 µM [inhibitor, single point]
COc1cccc(CNc2ccc([N+](=O)[O-])c(NCC(=O)O)n2)c1	inconclusive: 22.4 µM [inhibitor, partial curve]
O=C(O)c1cccc(Nc2cc(Cl)c3nonc3c2[N+](=O)[O-])c1	active: 3.55 µM
CC(=O)/C(=C\N(C)C)Sc1ccc(Cl)cc1	inconclusive: 31.6 µM [inhibitor, single point]
CC(=O)c1c(COC(=O)c2cccc(C)c2)nc2ccccc2[n+]1[O-]	inconclusive: 39.8 µM [inhibitor, single point]
O=C1ON=C(c2cccc([N+](=O)[O-])c2)/C1=C/c1ccc(O)cc1	inconclusive: 12.6 µM [inhibitor, partial curve]
C#C[C@]1(OC(C)=O)CC[C@H]2[C@@H]3CCC4=CC(=O)CC[C@@H]4[C@H]3CC[C@@]21C	inconclusive: 25.1 µM [inhibitor, partial curve]
CCN1C(=O)C(CC(=O)Nc2ccc(OC)cc2)N(CCCN2CCN(c3ccc(F)cc3)CC2)C1=S (stereo unspecified)	inconclusive: 28.2 µM [inhibitor, partial curve]
CC(=O)c1ccc(-c2ccc(C(=O)N3CCCc4ccccc43)o2)cc1	inconclusive: 12.6 µM [inhibitor, partial curve]
CC(/C=C/c1ccccc1)=N/NC(=O)c1nc2nc(C)cc(C)n2n1	inconclusive: 10 µM [inhibitor, partial curve]
COC(=O)c1c(-c2ccc(OC)c(OC)c2)csc1N	inconclusive: 12.6 µM [inhibitor, single point]
CCn1c(=NC(=O)C2COc3ccccc3O2)sc2c(OC)ccc(OC)c21 (stereo unspecified)	inconclusive: 1.58 µM [inhibitor, partial curve]
COc1ccc(CNc2oc(/C=C/c3cccc(OC)c3)nc2C#N)cc1	inconclusive: 8.91 µM [inhibitor, partial curve]
O=C(CNc1cccc2ccccc12)c1ccc([N+](=O)[O-])cc1	active: 14.1 µM
COc1ccccc1-c1cc(=O)c2cccc(OC)c2o1	inconclusive: 25.1 µM [inhibitor, partial curve]
